Reference: patent US20190298770A1 (IOVANCE BIOTHERAPEUTICS, published 2019)

Key:
[1] = molecular target: T1, Programmed Death 1 Ligand 1 (PD-L1) (human, UniProt Q9NZQ7); test: flow cytometry of 293-PD-L1 co-cultured 1:1 for 16 hour with Jurkat T-cells secreting the maxibody, Alexa 647 anti-human Fcγ
T1 construct: also called CD274; B7-H1

[2] = molecular target: T1, Programmed Death 1 Ligand 1 (PD-L1); test: cell based ELISA on 293-PD-L1, HRP anti-human Fcγ, OD450. No unit stands beside the number: nM is taken from the axis title 'Maxibody Concentration (log nM)'. The curve crosses half height (OD450 about 1.0) near log -0.4. [panel A]
T1 sequence (Q9NZQ7 19-290): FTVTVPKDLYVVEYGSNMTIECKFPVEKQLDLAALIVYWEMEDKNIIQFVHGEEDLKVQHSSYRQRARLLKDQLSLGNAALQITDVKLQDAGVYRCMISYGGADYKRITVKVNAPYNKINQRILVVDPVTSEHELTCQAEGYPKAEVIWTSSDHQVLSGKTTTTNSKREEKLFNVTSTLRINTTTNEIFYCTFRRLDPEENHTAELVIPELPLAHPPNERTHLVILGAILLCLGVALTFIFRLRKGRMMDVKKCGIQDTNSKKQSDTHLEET

[3] = molecular target: T1, Programmed Death 1 Ligand 1 (PD-L1); test: cell based ELISA on 293-PD-L1, HRP anti-human Fcγ, OD450. No unit stands beside the number. Panel B has no axis title and the same -3 to 2 scale as panel A (log nM). The curve crosses half height (OD450 about 1.1) near log -0.9. [panel B]
[4] = molecular target: T1, Programmed Death 1 Ligand 1 (PD-L1); test: flow cytometry (MFI) of 293-PD-L1 stained with ten-fold concentrated supernatant of TIL lines M1034 and M1015 secreting the maxibody
[5] = molecular target: T1, Programmed Death 1 Ligand 1 (PD-L1); test: cell-based or functional assay

Row | Binder | fold increase of mean fluorescent intensity against FMC63-scFV-Fc [1] [fold] | EC50 [2] [pM] | EC50 [3] [pM] | fold increase of binding against FMC63-scFV-Fc [4] [fold] | capacity to induce bioluminescent activity, fold against 19H9-scFV-Fc [5] [fold]
1 | 19H9-scFV-Fc (Fc fusion, also called 19H9-Fc; 19H9-seFV-Fe) QVQLQESGGGLVKPGGSLRLSCAASGFTFSSYSMNWVRQAPGKGLEWVSGINTAGDTHYPESVKGRFTISRDNARNSLNLQMNSLRAEDTAVYYCVRERVEREYSGYDAFDIWGQGTTVTVSAGGGGSGGGGSGGGGSGAPNFMLTQPHSVSESLGKTVTISCTGSSGSIARKFVQWYQQRPGSSPTTVIYENNQRPSGVSDRFSGSIGSSSNSASLTISGLKTEDEADYYCQSYDSSNVVFGGGTKVTVLGPRANFVYKSGPR[letters of human IgG1 Fc left out] | 100 | 404 |  |  | 
2 | 38A1-scFV-Fc (Fc fusion, Secreted from transduced cells; also called 38A1-Fc; 38A1-seFV-Fe) EVQLVESGGGLVQPGGSLRLSCAASGFTFSNYAMSWVRQAPGKGLEWVSTISGSGGTTYYADSVKGRFTISRDNSKNTLYLQMNSLRVEDTAVYYCAKDWFRSSSPDAFDIWGQGTTVTVSAGGGGSGGGGSGGGGSGAPSYVLTQPPSVSVAPGQTARITCGGNNIGRKIVHWYQQRPGQAPVLVIYYDTDRPAGIPERFSGSNSGNMATLTISTVGAGDEADYYCQVWDTGSDHVVFGGGTKLTVLGPRANFVYKSGPR[letters of human IgG1 Fc left out] | 300 |  | 125 | > 50 | > 3.6
